Screen size: about 420,000 compounds; about 50,000 (12%) were called active. The inconclusive results got no clear call from the source; some entries with a clear call stand among them for comparison. The call rests on the fitted dose curve; in most records, active means well fitted inhibition curve with a large enough effect; inconclusive means small, poorly fitted or top-dose-only effect; inactive means flat fitted curve, though single readings scatter. No potency is given beside an inconclusive call; the fits are too rough.
Experiment: qHTS for Inhibitors of human tyrosyl-DNA phosphodiesterase 1 (TDP1): qHTS in cells in presence of CPT; further: nearly all actives have a fitted effect of over 55% in size
Conditions: chicken DT40 Tdp1-/-;hTDP1 cells + 20 nM CPT, ATP luminescence, 48 h; activity change, negative = growth inhibition: at 46.2 µM (top of the series) unless noted
Method in brief: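 Cell growth measured by CellTiter-Glo luminescence after a minimum 48 h, 37 C compound exposure with 20 nM CPT in Tdp1-knockout DT40 cells stably expressing hTDP1, seeded 400/well; qHTS titration format.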
On the % scale 0 is the no-effect control and ±100 the full control effect; potency means the concentration at half of the fitted maximal effect; tags describe the fitted curve by direction and shape.

Question: Which Potency does the source give for `CN1CCN(c2oc(-c3ccc(COc4ccc(Cl)cc4)o3)nc2C#N)CC1` here?
Answer: inconclusive [inhibitor, single point]

Question: Which Potency does the source give for `CCn1c(=O)c(C(=O)Nc2ccccc2C)c(O)c2ccccc21` here?
Answer: inconclusive [inhibitor, single point]

Question: Which Potency does the source give for `COc1ccc(-c2nc3ccccc3o2)cc1NC(=O)C(C)Oc1ccc(Cl)cc1Cl` (centres undefined) here?
Answer: inconclusive [inhibitor, partial curve]

Question: For `O=[N+]([O-])c1cc(/C=N/N2CCN(C3c4ccccc4-c4ccccc43)CC2)ccc1Cl`, which Potency is on record?
Answer: inactive

Question: For `CC(=O)Nc1ccc(C2=NN(Cc3nnc(-c4ccccc4)o3)C(=O)SC2)cc1`, which Potency is on record?
Answer: inactive

Question: Which Potency does the source give for `O=C(CN1CCN(c2ccc(O)cc2)CC1)Nc1ccc(SC(F)F)cc1` here?
Answer: inconclusive [inhibitor, partial curve]

Question: Which activity change, negative = growth inhibition does the source give for `CSc1nc2ncc3c(n2n1)CC1c2ccccc2CCN1C3=O` (centres undefined) here?
Answer: inconclusive: -31.4% [inhibitor]

Question: Which Potency does the source give for `Cc1nc2ccccc2n1CCc1nc2c3ccccc3nc(SCC(=O)Nc3ccc(Br)cc3F)n2n1` here?
Answer: inconclusive [inhibitor, single point]

Question: For `COc1ccc(C(=O)N/N=C/c2cc3ccccc3[nH]c2=O)cc1`, which Potency is on record?
Answer: inactive

Question: For `CSc1ncccc1C(=O)N1CCc2nnc(C(NC(=O)c3ccoc3)C(C)C)n2CC1` (centres undefined), which Potency is on record?
Answer: inactive

Question: For `Cc1ccc(-c2nnc(SCC(=O)Nc3sc(C)c(C)c3C#N)n2C)cc1`, which Potency is on record?
Answer: inconclusive [inhibitor, single point]

Question: Which Potency does the source give for `N#CCCN(C(=O)COC(=O)CCc1nc2ccccc2c(=O)[nH]1)c1ccc(F)cc1` here?
Answer: inconclusive [inhibitor, single point]

Question: For `CCOC(=O)N1CCN(S(=O)(=O)c2ccc3c(c2)CCN3C(=O)C2CCC2)CC1`, which Potency is on record?
Answer: inconclusive [inhibitor, single point]

Question: For `COCCNc1cc(-c2ccccc2C)ncn1`, which Potency is on record?
Answer: inactive

Question: For `CC(CCc1ccccc1)NC(=O)COC(=O)c1ccc(NC(=O)CC#N)cc1` (centres undefined), which Potency is on record?
Answer: inactive

Question: With `Cc1cccc(-c2nsc(SCC(=O)c3ccc(Cl)cc3)n2)c1` as the compound, how does the Potency read?
Answer: inconclusive [inhibitor, single point]

Question: For `CCCSc1ncc(Cl)c(C(=O)N(Cc2ccc(N(C)C)cc2)C2CCS(=O)(=O)C2)n1` (centres undefined), which Potency is on record?
Answer: inconclusive [inhibitor, single point]

Question: For `C=CCN1C(=O)/C(=C2\SC(N3CCOCC3)=NC2=O)c2cc(Br)ccc21`, which Potency is on record?
Answer: active: 23.1 µM

Question: Which Potency does the source give for `Cc1cccc(-c2ncc(CN3CCN(C4CCCC4)C(CCO)C3)cn2)c1` (centres undefined) here?
Answer: inactive

Question: Which Potency does the source give for `CNC(=O)C1CCC(Cn2c(=O)[nH]c3ccsc3c2=O)CC1` (centres undefined) here?
Answer: inactive

Question: For `Cc1ccccc1N1CC(C(=O)Nc2ccc3c(c2)OCO3)CC1=O` (centres undefined), which Potency is on record?
Answer: inactive

Question: With `COC(=O)c1ccc(CSc2nc3ccccc3c(=O)n2CC(C)C)o1` as the compound, how does the Potency read?
Answer: inconclusive [inhibitor, single point]

Question: For `CNC(=O)N(O)C1N(/N=C/c2cc(Br)ccc2O)C(=S)SC1(C)C` (centres undefined), which Potency is on record?
Answer: inconclusive [inhibitor, single point]

Question: Which Potency does the source give for `CCOC(=O)CNC(=O)N1CCc2cc(S(=O)(=O)N3CCC(C)CC3)ccc21` here?
Answer: inconclusive [inhibitor, single point]

Question: For `CN(Cc1ccccc1)S(=O)(=O)c1ccc(NC(=S)NC(=O)C2CCCCC2)cc1`, which Potency is on record?
Answer: active: 11.6 µM

Question: For `CC(C)(C)c1nnc(N/N=C/c2ccc(Br)cc2)n(N)c1=O`, which Potency is on record?
Answer: inconclusive [inhibitor, single point]

Question: For `Cc1nc2ccc(S(=O)(=O)Nc3cccc(-c4nc5cccnc5s4)c3C)cc2s1`, which Potency is on record?
Answer: inconclusive [inhibitor, single point]

Question: For `Cc1nnc(SCC(=O)N/N=C/c2ccc(-c3ccc(C)c(Cl)c3)o2)s1`, which Potency is on record?
Answer: inconclusive [inhibitor, single point]

Question: With `N#CCC1c2ccccc2CCN1C(=O)Nc1ccc(C(F)(F)F)cc1` (centres undefined) as the compound, how does the Potency read?
Answer: inconclusive [inhibitor, partial curve, poor fit]

Question: With `CN(Cc1ccccc1)c1nc(N)nc(Cl)c1C=O` as the compound, how does the Potency read?
Answer: inactive

Question: For `Cc1cccc(C2CC(c3ccc(F)cc3)Nc3nc(N)nn32)c1` (centres undefined), which Potency is on record?
Answer: inconclusive [inhibitor, single point]

Question: For `N#Cc1c(NC(=O)CSc2nc(N)cc(=O)[nH]2)sc2c1CCCCCC2`, which Potency is on record?
Answer: inconclusive [inhibitor, partial curve]

Question: With `O=C(Nc1cccnc1)c1noc2c1CCCC2` as the compound, how does the Potency read?
Answer: inconclusive [inhibitor, single point]

Question: For `O=C(NC1c2ccccc2Oc2ccccc21)c1ccc([N+](=O)[O-])cc1`, which Potency is on record?
Answer: inactive

Question: Which Potency does the source give for `C=CC[n+]1ccc2ccccc2c1C` here?
Answer: inactive

Question: For `Cc1nc(C)n(CC(=O)N2CCCC(C(=O)c3ccc(Cl)cc3C)C2)n1` (centres undefined), which Potency is on record?
Answer: active: 0.411 µM

Question: Which Potency does the source give for `CCOC(=O)C1CCN(C(=S)Nc2ccccc2)CC1` here?
Answer: inconclusive [inhibitor, single point]

Question: With `O=C(CN1C(=O)C(=O)N(Cc2ccccc2)C1=O)Nc1ccc(F)c(Cl)c1` as the compound, how does the Potency read?
Answer: inactive

Question: With `O=c1cnc2cnc(OCc3ccccc3)nc2n1CCc1ccccc1` as the compound, how does the Potency read?
Answer: inactive

Question: With `COc1ccc2nc(N3C(=O)CNC3=S)sc2c1` as the compound, how does the Potency read?
Answer: active: 7.31 µM

Question: For `Cc1ccccc1-n1c(/C=C/c2c(C)n(C)c3ccccc23)nc2ccccc2c1=O`, which Potency is on record?
Answer: active: 6.51 µM

Question: With `COc1cccc(-c2ncc3ccccc3c2COC(=O)c2cccc(Br)c2)c1` as the compound, how does the Potency read?
Answer: inconclusive [inhibitor, single point]

Question: For `COc1ccc(CC(=O)N(C)C2CCCCC2)cc1S(=O)(=O)N1CCOCC1`, which Potency is on record?
Answer: inactive

Question: For `N#CC(C#N)=C1C=CC=CN1/C(=C\c1ccco1)C(=O)c1ccccc1`, which Potency is on record?
Answer: active: 1.3 µM

Question: With `Cc1sc2nc(SCC(=O)N3CCCCC3)[nH]c(=O)c2c1C` as the compound, how does the Potency read?
Answer: inactive

Question: Which Potency does the source give for `COc1ccccc1N1CCN(/N=C/c2cc([N+](=O)[O-])ccc2Cl)CC1` here?
Answer: inactive

Question: With `CN1c2ccccc2-c2nc3ccccc3n2C1c1ccncc1` (centres undefined) as the compound, how does the Potency read?
Answer: inactive

Question: Which Potency does the source give for `Cc1ccc(-c2nnn3c2nc(Cl)c2ccccc23)cc1` here?
Answer: active: 2.91 µM

Question: With `COc1ccccc1CNC(=O)Cc1ccc(Br)cc1` as the compound, how does the Potency read?
Answer: inconclusive [inhibitor, single point]
